From EP4796129A1, “ANTI-NECTIN-4 ANTIBODY-DRUG CONJUGATE COMPRISING CAMPTOTHECIN DERIVATIVE” (Celltrion, Inc., priority 2023, dated 2025)
Where two headings read alike, the source gives them in different places. Where a SMILES comes first, the peptide text is derived from it. [ ]: non-standard residue; d: D form. The star is where a group is joined. Dolaproine = CO[C@@H]([C@@H]1CCCN1)[C@@H](C)C(=O)O; Dil = CC[C@H](C)[C@H](NC)[C@@H](CC(=O)O)OC; X1 = C[C@@H](N*)[C@@H](O)c1ccccc1; NMeV = CN[C@H](C(=O)O)C(C)C

Experiments:
[1] = system: H322M (a lung cancer cell line); test: cells; conditions: Homo sapiens, NCI-H322M
Description: (§1) Exatecan and MMAE were purchased from Medchemexpress.
(§2) Specifically, the cell lines described in Table 5 were seeded per well in a 96-well plate and incubated at room temperature (37°C, 5% CO2). After 24 hours, the cells were treated with 100 µL of payload compounds or ADC drugs at 9 concentrations (a 4-fold serial dilution starting from 1,000 nM). In particular, a control group (drug concentration 0), which is an untreated group, was also prepared. After 6 days of incubation (37°C, 5% CO2), 100 µL of CellTiter-Glo reagent (CellTiter-Glo® Luminescent Cell Viability Assay kit (Promega, G7571)) was added to each well and pipetted. Fluorescence was measured after incubation at room temperature (RT) for 10 minutes.

[2] = system: PC-3 (a prostate cancer cell line); test: In-vitro cell viability assay (CellTiter-Glo); conditions: PC-3 (Negative), Nectin-4 expression level -; 6 days of incubation
Description: as §1, §2

[3] = system: SUM190PT (a breast cancer cell line); test: In-vitro cell viability assay (CellTiter-Glo); conditions: Nectin-4 expression level +++, 6 days of incubation
Description: as §1, §2

[4] = system: Nectin4-HEK293 (an overexpressing cell line); test: In-vitro cell viability assay (CellTiter-Glo); format: cell-based; conditions: N4-HEK, Nectin-4 expression level +++; 6 days of incubation
Excerpt: as §1

[5] = system: SUM190PT (a breast cancer cell line); conditions: Nectin-4 expression level +++, 6 days of incubation
Description: as §1, §2

[6] = system: Nectin4-HEK293 (an overexpressing cell line); test: In-vitro cell viability assay (CellTiter-Glo); conditions: N4-HEK, Nectin-4 expression level +++; 6 days of incubation
Description: as §1, §2

Row | Compound | IC50 ([1]; read-out: IC50) | IC50 [2] | IC50 [3] | IC50 [4] | IC50 [1] | IC50 [5] | IC50 [6]
1 | CC[C@H](C)[C@@H]([C@@H](CC(=O)N1CCC[C@H]1[C@H](OC)[C@@H](C)C(=O)N[C@H](C)[C@@H](O)c1ccccc1)OC)N(C)C(=O)[C@@H](NC(=O)[C@@H](NC)C(C)C)C(C)C [MMAE, Monomethyl auristatin E] (H-[NMeV]V[Dil][Dolaproine]-X1) | 0.196 nM | 0.42 nM | 0.07 nM | – | – | – | –
2 | CC[C@@]1(O)C(=O)OCc2c1cc1n(c2=O)Cc2c-1nc1cc3c(c4c1c2[C@@H](NC(=O)[C@@H](C)O)CC4)OCO3 [PBX-7016] | – | – | – | 1.36 nM | 1.7 nM | – | –
3 | PADCEV: ADC in which anti-Nectin4 mAb and MMAE are linked by an mc-vc-PAB linker | – | 269 nM | – | – | – | 0.016 nM | 0.026 nM
